Measured values as given in the supplement of paper PMC11417369.
The list shows a part of the results.

tested on: PfHDP1 homeodomain (GST-tagged); assay: gcPBM binding intensity (ln(normalized median fluorescence intensity)); higher = stronger DNA binding
Procedure, shortened: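 Binding of GST-tagged P. falciparum DNA-binding domains, expressed in E. coli and used at about 25 μg on average, was carried out for 1 h in 1× PBS containing 1% milk, 0.2 mg/ml BSA, 0.5% salmon testes DNA and 0.03% Triton X-100. The target was an Agilent 4 × 180k array of primer-extended double-stranded 36-bp intergenic genomic probes plus negative controls, read with Alexa488 anti-GST antibody at 488 nm. Binding intensity is the highest Masliner-normalised natural-log median intensity across replicate spots of either probe orientation.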

| Sequence | gcPBM binding intensity (ln) |
| --- | --- |
| TATAAAAAATTATGTTGTACGTAATATAAAATTTGT [XGTACX_site7122] | 6.32 |
| AATCAAAATAAATTAACACACAATTTTAATATTGTT [CACACA_site10] | 6.13 |
| ATTTTCCATATATTTTGTACATATGTATATTTTCCC [XGTACX_site7795] | 7.23 |
| TATTTTTAACAGTGCACACATAACTTAATTATATGT [CACACA_site2194] | 9.55 |
| CCAGGAAAAATTTATTGTACATATATTTTTATGCTC [XGTACX_site7154] | 6.53 |
| TATATTAAAAAAAAATGTACACATATATATATATAT [XGTACX_site4524] | 9.21 |
| ATATTATTAATTTGTTGTACAGTTCTTTATTTATAG [XGTACX_site7932] | 6.72 |
| TATATGTTTGAATATACACACAACATATATATATAT [CACACA_site4066] | 9.03 |
| TATTTTTGGTTATGTGTGCACTATGAACAACAAAAT | 10.4 |
| TATAAATAAAGACACACACACACACCGTATAATTAC [CACACA_site7829] | 6.84 |
| TTCCCAACATGATATTGTACATTTAATTATAATTAA [XGTACX_site7029] | 7.08 |
| TAATAAAACATATATACACACATTAGATATACATAT [CACACA_site6897] | 6.53 |
| TATATCTCTTTATTCACACATACGTTTTAAAATAAT [CACACA_site5542] | 7.17 |
| ATTTGTGTTATTCGAAGTACGGATCATTTGAAATAA [XGTACX_site2510] | 6.51 |
| TTTATGAGGTTACTATGTACGCAAATTATGTAATAA [XGTACX_site325] | 6.49 |
| AAAAGAAGAAACAAAACACACACAGTCTTCTTTTCT [CACACA_site9015] | 6.78 |
| AGCAATTTGGGGTGTACACACACCTTATTTAAATTA [CACACA_site1157] | 6.67 |
| TCAAATTATTAAAATACACACATATTATATATATAT [CACACA_site2530] | 8.51 |
| GACACCTGCATGAAAGTGCAAAATAGAAAAGGAACA [GTGCAC_site9593] | 9.59 |

| Sequence | gcPBM binding intensity (ln) |
| --- | --- |
| TTACCTCTTTGAAATATACACACTAAACATATCAAC [CACACA_site2455] | 6.82 |
| AAGGAATAATAATAAATGTAAAGAAAAGCATACTGA [CACACA_negctrl_site36] | 6.56 |
| AACACGCACAGACACACACACAAAAATGATTAAAAA [CACACA_site7195] | 7.3 |
| AAATACCTTATATATACACACTATGTTTTTCTTTTT [CACACA_site4792] | 6.61 |
| AGATATTTTTCTTAAGTACACACTAATTAGAAACTA [CACACA_site7897] | 6.4 |
| TTTTTATTTTAAAAGAATAATTATCTAATATCTATA [CACACA_negctrl_site371] | 5.71 |
| TCGAACGTATCATGTGTACACACAAATTGTTTTTTT [CACACA_site8623] | 7.31 |
| GTATAAAAGTAACTAGTGCATTACATATGAATAAAA | 9.14 |
| CCTTGCCCCAGGAGTTCACACACATAATAGATTGTC [CACACA_site8138] | 6.63 |
| TTTTTTCATATAAATACATGCACACAAAAATATCAA [TGCATGCA_site602] | 8.53 |
| AATAACAAAATATTAACACACATAACATATTATAAA [CACACA_site2803] | 6.46 |
| TAATGTTTTTTTTGTTTACCAAAAATAATACATTAT [CACACA_negctrl_site203] | 5.92 |
| TATTTCTTTATTGGCACACATTTTTTCAATTATATA [CACACA_site4975] | 6.96 |
| GCAAATATGTTGATATGTACATATATATATATATAT [XGTACX_site445] | 9.28 |
| ATATACAAATATATATATATATATATATATATATAT [CACACA_negctrl_site886] | 9.35 |
| AAAAAATATACATATACACACATATGTATATATAAT [CACACA_site8676] | 6.34 |
| ATTATTTTAATAAAACGTACAAAATATAAATCAAAA [XGTACX_site3770] | 6.83 |
| AGGTAGAAAAAAGACACACACATTATGTATATATAT [CACACA_site377] | 7.04 |
| TTATAGGATCAAGCGCGTACATATCTTTATAAAAGA [XGTACX_site5775] | 6.31 |

| Sequence | gcPBM binding intensity (ln) |
| --- | --- |
| ATATATATATATGTGTGTACATATATGTGGATGGAT [XGTACX_site6240] | 9.24 |
| TTTTAAATCTTATATTCCCCACATAAATAGCTCTCT [GTGCAC_negctrl_site665] | 6.53 |
| ACAACAAAAATAAGCACACACAAATATACATACATA [CACACA_site7664] | 6.55 |
| ACATAAGAACATATTTGTACGTATATAAATTAAATA [XGTACX_site6127] | 6.42 |
| AAAATTTATATAAGCACACAAATATATATTTATATC [CACACA_site3291] | 6.56 |
| TTATTTTTGTTTTGAAGTACAAAAAAATATATTCTT [XGTACX_site6416] | 6.25 |
| AGTTTATAGTGATATTGTACATATATATATATATAT [XGTACX_site572] | 9.32 |
| TATTTATACTCAACTTTCTGTTATTCCAACTTTTTT [XGTACX_negctrl_site410] | 6.78 |
| TTATATATTAATAGTAGTACTATATTGAATCACCCC [XGTACX_site2868] | 7.33 |
| ACGCAATATTAACAAGTGCATTATAACACATAACAT | 9.31 |
| ATAACATTCTATGTTGCACACAAAGAGAAAAATTTA [CACACA_site9322] | 9.12 |
| TATACTTTATATATTTTGTATATATATTTTTTTTAT [TGCATGCA_negctrl_site530] | 6.31 |
| AATAAAAAGTAATAATAACGTATAATTTATTATACT [TGCATGCA_negctrl_site414] | 6.14 |
| TCTTGTTATTTAAATGCATGTTGATTTTAAAAAATT [TGCATGCA_site840] | 6.72 |
| GTAAATTATATAACAAATAAAAATGTACATATATAT [CACACA_negctrl_site408] | 6.84 |
| ATATATATAGATTGTACACACATTTATGCATATATA [CACACA_site3222] | 7.35 |
| ATGGACAAAAAATATATACACACGAGGAAACCAACA [CACACA_site3726] | 7.16 |
| CGTGGGAGCAGACACACACACACACGCATATTTATA [CACACA_site6290] | 6.56 |
| CATGCATACTACATCTGTACACATACATTATATTTA [XGTACX_site2495] | 7.17 |
